# Laboratory results reported in paper PMC3804554.
# Results are given in words; binding and its absence hold for the method and conditions named. Binding seen in cells or lysates may run through a third protein. Some entries that bind do so weakly or less than the wild type. Where a sequence is shown, tags or fusion partners need not be part of it.
# T1: EloB, tagged (co-immunoprecipitation with EloA, data not shown) (Drosophila melanogaster) (UniProt O44226)
# T1 sequence: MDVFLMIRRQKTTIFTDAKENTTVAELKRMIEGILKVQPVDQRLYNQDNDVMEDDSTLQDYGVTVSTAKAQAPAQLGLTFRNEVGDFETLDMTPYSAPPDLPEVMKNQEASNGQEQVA
# T2: EloA-Myc (Elongin A, Myc-tagged) (Drosophila melanogaster) (UniProt Q9VCP0)
# T2 sequence: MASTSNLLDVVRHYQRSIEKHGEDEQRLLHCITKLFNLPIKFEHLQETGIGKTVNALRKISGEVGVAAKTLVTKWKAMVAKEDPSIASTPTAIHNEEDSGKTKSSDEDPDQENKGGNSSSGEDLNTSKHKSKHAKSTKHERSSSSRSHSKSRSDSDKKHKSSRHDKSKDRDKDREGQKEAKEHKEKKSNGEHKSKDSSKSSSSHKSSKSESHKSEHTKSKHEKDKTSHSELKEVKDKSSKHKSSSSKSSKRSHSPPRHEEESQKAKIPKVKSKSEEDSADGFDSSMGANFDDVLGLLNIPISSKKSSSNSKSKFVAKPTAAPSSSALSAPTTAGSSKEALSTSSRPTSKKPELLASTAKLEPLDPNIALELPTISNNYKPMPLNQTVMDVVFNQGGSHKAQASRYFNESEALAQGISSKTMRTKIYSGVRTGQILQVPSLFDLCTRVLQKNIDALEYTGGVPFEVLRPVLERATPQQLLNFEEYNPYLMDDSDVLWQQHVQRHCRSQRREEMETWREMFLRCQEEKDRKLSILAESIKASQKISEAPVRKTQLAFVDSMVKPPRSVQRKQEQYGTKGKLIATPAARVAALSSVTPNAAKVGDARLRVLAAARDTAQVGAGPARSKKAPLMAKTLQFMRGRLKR
# T3: Corto-FLAG (ETP Corto, FLAG-tagged) (Drosophila melanogaster) (UniProt P41046)
# T3 sequence: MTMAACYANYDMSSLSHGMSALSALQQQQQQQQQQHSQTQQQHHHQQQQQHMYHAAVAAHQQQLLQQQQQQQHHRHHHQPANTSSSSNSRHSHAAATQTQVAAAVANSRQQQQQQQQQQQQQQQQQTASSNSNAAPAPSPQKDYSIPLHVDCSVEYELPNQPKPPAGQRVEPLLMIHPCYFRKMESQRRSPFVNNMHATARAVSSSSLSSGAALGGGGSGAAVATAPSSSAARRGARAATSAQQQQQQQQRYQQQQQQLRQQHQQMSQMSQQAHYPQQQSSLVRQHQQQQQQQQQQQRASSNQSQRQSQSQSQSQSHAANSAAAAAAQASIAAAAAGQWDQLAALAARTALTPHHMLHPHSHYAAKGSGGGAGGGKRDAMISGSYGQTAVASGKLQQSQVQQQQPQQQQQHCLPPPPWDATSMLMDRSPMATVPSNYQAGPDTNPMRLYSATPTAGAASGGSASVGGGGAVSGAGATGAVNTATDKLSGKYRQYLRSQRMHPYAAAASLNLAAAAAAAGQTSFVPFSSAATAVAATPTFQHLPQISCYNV
# Tests used:
# [1] = molecular target: T1, EloB, tagged (co-immunoprecipitation with EloA, data not shown) (Drosophila melanogaster); assay: co-IP; data not shown; tagged EloA and EloB in S2 cells, after cross-linking with paraformaldehyde
# [2] = molecular target: T2, EloA-Myc (Elongin A, Myc-tagged) (Drosophila melanogaster); assay: condition: only native protein extracts, without cross-linking; co-IP; Myc- and FLAG-tagged proteins co-expressed in S2 cells; native whole cell extracts (no cross-linking); IP with anti-FLAG or anti-Myc, protein G-agarose, Western blot
# [3] = molecular target: T2, EloA-Myc (Elongin A, Myc-tagged) (Drosophila melanogaster); assay: co-IP; Myc- and FLAG-tagged proteins co-expressed in S2 cells; cells treated with 1% paraformaldehyde for 10 minutes at room temperature before extraction; IP with anti-FLAG or anti-Myc, Western blot
# [4] = molecular target: T3, Corto-FLAG (ETP Corto, FLAG-tagged) (Drosophila melanogaster); assay: condition: only native protein extracts, without cross-linking; co-IP; Myc- and FLAG-tagged proteins co-expressed in S2 cells; native whole cell extracts (no cross-linking); IP with anti-FLAG or anti-Myc, protein G-agarose, Western blot
# [5] = molecular target: T3, Corto-FLAG (ETP Corto, FLAG-tagged) (Drosophila melanogaster); assay: co-IP; Myc- and FLAG-tagged proteins co-expressed in S2 cells; cells treated with 1% paraformaldehyde for 10 minutes at room temperature before extraction; IP with anti-FLAG or anti-Myc, Western blot
binder,measurement,setting,value
"EloA, tagged (co-immunoprecipitation with EloB, data not shown) (protein, UniProt Q9VCP0 1-643) MASTSNLLDVVRHYQRSIEKHGEDEQRLLHCITKLFNLPIKFEHLQETGIGKTVNALRKISGEVGVAAKTLVTKWKAMVAKEDPSIASTPTAIHNEEDSGKTKSSDEDPDQENKGGNSSSGEDLNTSKHKSKHAKSTKHERSSSSRSHSKSRSDSDKKHKSSRHDKSKDRDKDREGQKEAKEHKEKKSNGEHKSKDSSKSSSSHKSSKSESHKSEHTKSKHEKDKTSHSELKEVKDKSSKHKSSSSKSSKRSHSPPRHEEESQKAKIPKVKSKSEEDSADGFDSSMGANFDDVLGLLNIPISSKKSSSNSKSKFVAKPTAAPSSSALSAPTTAGSSKEALSTSSRPTSKKPELLASTAKLEPLDPNIALELPTISNNYKPMPLNQTVMDVVFNQGGSHKAQASRYFNESEALAQGISSKTMRTKIYSGVRTGQILQVPSLFDLCTRVLQKNIDALEYTGGVPFEVLRPVLERATPQQLLNFEEYNPYLMDDSDVLWQQHVQRHCRSQRREEMETWREMFLRCQEEKDRKLSILAESIKASQKISEAPVRKTQLAFVDSMVKPPRSVQRKQEQYGTKGKLIATPAARVAALSSVTPNAAKVGDARLRVLAAARDTAQVGAGPARSKKAPLMAKTLQFMRGRLKR",binding,[1],binds weakly
"Corto-FLAG (ETP Corto, FLAG-tagged) (protein, UniProt P41046 1-550) MTMAACYANYDMSSLSHGMSALSALQQQQQQQQQQHSQTQQQHHHQQQQQHMYHAAVAAHQQQLLQQQQQQQHHRHHHQPANTSSSSNSRHSHAAATQTQVAAAVANSRQQQQQQQQQQQQQQQQQTASSNSNAAPAPSPQKDYSIPLHVDCSVEYELPNQPKPPAGQRVEPLLMIHPCYFRKMESQRRSPFVNNMHATARAVSSSSLSSGAALGGGGSGAAVATAPSSSAARRGARAATSAQQQQQQQQRYQQQQQQLRQQHQQMSQMSQQAHYPQQQSSLVRQHQQQQQQQQQQQRASSNQSQRQSQSQSQSQSHAANSAAAAAAQASIAAAAAGQWDQLAALAARTALTPHHMLHPHSHYAAKGSGGGAGGGKRDAMISGSYGQTAVASGKLQQSQVQQQQPQQQQQHCLPPPPWDATSMLMDRSPMATVPSNYQAGPDTNPMRLYSATPTAGAASGGSASVGGGGAVSGAGATGAVNTATDKLSGKYRQYLRSQRMHPYAAAASLNLAAAAAAAGQTSFVPFSSAATAVAATPTFQHLPQISCYNV",binding,[2],no binding
same,binding,[3],binds
"EloB-Myc (Elongin B, Myc-tagged) (protein, UniProt O44226 1-118) MDVFLMIRRQKTTIFTDAKENTTVAELKRMIEGILKVQPVDQRLYNQDNDVMEDDSTLQDYGVTVSTAKAQAPAQLGLTFRNEVGDFETLDMTPYSAPPDLPEVMKNQEASNGQEQVA",binding,[4],no binding
same,binding,[5],binds weakly
